Assay results from PubChem BioAssay AID488969 (Vanderbilt High Throughput Screening Facility, 2010).
Whole data set: some 110,000 compounds, median “z-score” near -0.1, cut for the highest 2% near 2. Some of the results follow. Active and inactive are the calls of the source.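 How the source made its calls: active means z-score in the third read window above 3 or below -3; inactive means the rest.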

molecular target: Metabotropic glutamate receptor 8 (Rattus norvegicus) (UniProt P70579); assay: mGluR8 Gi/Go-coupled signaling modulation – cell-based, rat, thallium flux, HTS, primary screen (AID 488969); conditions: HEK293 rat mGluR8, GIRK (G protein-gated inwardly rectifying potassium channel) thallium flux, FluoZin2; at 10 µM; stronger effect = higher value; submaximal glutamate (EC20) added with thallium
UniProt P70579, sequence (P70579 whole entry, looked up): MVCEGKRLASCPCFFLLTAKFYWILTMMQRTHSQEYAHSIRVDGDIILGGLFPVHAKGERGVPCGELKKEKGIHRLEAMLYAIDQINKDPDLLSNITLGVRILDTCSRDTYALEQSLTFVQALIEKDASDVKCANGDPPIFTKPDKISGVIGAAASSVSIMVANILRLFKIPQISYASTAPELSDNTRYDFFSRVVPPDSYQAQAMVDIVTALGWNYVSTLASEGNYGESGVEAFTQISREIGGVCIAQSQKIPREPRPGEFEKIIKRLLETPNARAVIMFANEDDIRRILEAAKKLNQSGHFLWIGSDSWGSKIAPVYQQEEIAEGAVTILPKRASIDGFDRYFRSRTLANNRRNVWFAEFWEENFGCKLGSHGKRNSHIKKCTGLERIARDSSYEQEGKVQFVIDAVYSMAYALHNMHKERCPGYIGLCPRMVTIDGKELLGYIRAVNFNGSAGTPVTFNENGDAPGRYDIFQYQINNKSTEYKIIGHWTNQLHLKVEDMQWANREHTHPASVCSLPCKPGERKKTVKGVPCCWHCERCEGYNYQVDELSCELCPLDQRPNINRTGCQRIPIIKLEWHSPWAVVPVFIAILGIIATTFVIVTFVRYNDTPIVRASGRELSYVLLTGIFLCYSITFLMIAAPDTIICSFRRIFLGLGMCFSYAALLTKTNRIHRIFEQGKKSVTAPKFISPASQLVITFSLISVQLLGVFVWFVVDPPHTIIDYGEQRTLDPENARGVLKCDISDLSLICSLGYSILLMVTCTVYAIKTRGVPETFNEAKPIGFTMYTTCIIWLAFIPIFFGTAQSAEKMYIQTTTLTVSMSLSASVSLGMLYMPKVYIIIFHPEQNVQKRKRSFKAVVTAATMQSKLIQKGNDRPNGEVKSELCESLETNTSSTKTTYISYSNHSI

| Structure (SMILES) | z-score |
| --- | --- |
| N#Cc1nc(Cc2ccccc2)oc1N1CCC(C(N)=O)CC1 | 0.14 |
| CCOC(=O)c1c(C)n(C)c2ccc(OCC(O)CNC(CC)CO)cc12 (stereo unspecified) | 0.0591 |
| COc1ccc(C)cc1NC(=O)CNC(=O)Cn1ccc2ccccc2c1=O | 0.669 |
| N#CC1=C(N)SC(N)=C(C#N)C1c1ccnc2ccccc12 | -0.246 |
| O=C1CC(SC2=NCCS2)C(=O)N1c1ccc(Cl)cc1 (stereo unspecified) | -0.135 |
| O=C(NC1CCN(C(=S)NCc2ccco2)CC1)c1ccc(F)cc1 | -0.521 |
| O=C(CN(C1CCCCC1)S(=O)(=O)c1ccc(Cl)cc1)N1CCOCC1 | -0.292 |
| Cc1ccc2[nH]c3c(=O)n(CCC4=CCCCC4)cnc3c2c1 | -0.447 |
| CCC(C)(C)C(=O)Nc1ncc(S(=O)(=O)c2ccc([N+](=O)[O-])cc2)s1 | -0.167 |
| CCN(C(=O)c1cnc(N2CCN(c3ncccn3)CC2)c2ccccc12)c1cccc(Cl)c1 | -0.459 |
| CC1Cn2c(COc3ccccc3)nnc2S1 (stereo unspecified) | 0.617 |
| COc1ccc(C2CC(c3ccc(Cl)c(Cl)c3)Nc3nc(N)nn32)cc1 (stereo unspecified) | active: 3.08 |
| O=C(c1n[nH]c(=O)c2ccccc12)N1CCN(c2ccccc2Cl)CC1 | -0.0334 |
| Cc1cc(=O)n(C)c(=O)n1CCCCCN1CCCC1 | 0.974 |
| O=C(c1ccccc1NS(=O)(=O)c1cccs1)N1CCOCC1 | 0.192 |
| Cn1c(N)c(C(=O)COC(=O)C2CCCCC2)c(=O)n(C)c1=O | -0.182 |

| Structure (SMILES) | z-score |
| --- | --- |
| O=C(Nc1ccccc1Cl)c1c(F)c(F)c(F)c(F)c1F | -0.281 |
| Clc1ccc(-n2ncc3c(NCc4ccccn4)ncnc32)cc1 | 1.73 |
| CCC(C)C(NC(=O)C1CCC(C)CC1)C(=O)NC(CCSC)C(=O)OC (stereo unspecified) | -0.493 |
| CCCn1nnnc1-c1ccc(Cl)cc1 | 0.0464 |
| Cc1[nH]c(=O)[nH]c1CN1CCCCC1 | 0.0385 |
| COc1ccc(C2CC(c3ccc(OC)cc3)n3nc(NC(=O)c4cccs4)nc3N2)cc1 (stereo unspecified) | -0.138 |
| O=C(CSc1nc(-c2cccs2)cc(C(F)(F)F)n1)NCc1ccccc1 | -0.654 |
| CN(Cc1ccccc1)C(=O)Cn1cccc1C(=O)c1ccccc1 | -0.0101 |
| COc1ccc(NC(=O)c2ccccc2O)c(OC)c1 | 0.531 |
| O=C1C2C3C=CC(C3=C3CCCCC3)C2C(=O)N1Cc1ccccc1 (stereo unspecified) | -0.447 |
| Cc1ccc(N(CC(=O)NCc2ccc3c(c2)OCO3)S(=O)(=O)c2c(C)noc2C)cc1 | -0.388 |
| CCOc1ccc(-c2[nH]ncc2-c2csc(C)n2)c(O)c1 | -0.285 |
| CCOC(=O)c1cc2c(=O)n3ccccc3nc2n(CCCOC)c1=NC(=O)c1cccnc1 | 0.523 |
| C=CCNC(=O)C(C#N)c1nc2ccccc2nc1N1CCCCCC1 (stereo unspecified) | -0.512 |
| Cc1ccc(-n2c(Cc3cccn3C)nnc2SCC(=O)Nc2cc(C)on2)cc1 | -0.345 |
